Whole data set: some 1,400 sequences, median “thermal melting temperature (Tm) of peptide-HLA complex” near 60, cut for the lowest 2% near 45. The list shows a part of the results.
B1: unnamed (peptide)
chain: SPYPTKTQTM
B2: unnamed (peptide)
chain: APRVPVQAL
B3: unnamed (peptide)
chain: KPKDPLKISL
B4: unnamed (peptide)
chain: QPMDIHVEL
B5: unnamed (peptide)
chain: APSPRPLSL
B6: unnamed (peptide)
chain: AVDPNRAVPL
B7: unnamed (peptide)
chain: SPALGLRGL
B8: unnamed (peptide)
chain: SPSPINSSQAL
B9: unnamed (peptide)
chain: GPASSLTAL
B10: unnamed (peptide)
chain: RPTGGVGAV
B11: unnamed (peptide)
chain: NPRQINWTVL
B12: unnamed (peptide)
chain: SPRDPVLTL
B13: unnamed (peptide)
chain: APAVPALRL
B14: unnamed (peptide)
chain: APRDLVISI
B15: unnamed (peptide)
chain: RPHFSIIAI
B16: unnamed (peptide)
chain: HPRSPTPTLP

Molecular target: HLA-B*07:02
Test: thermal melting temperature (Tm) of peptide-HLA complex; higher = more thermostable pHLA complex
Settings: C1R-B*07:02
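Further: cell lysates heated 10 min at 37–73 °C, remaining pHLA pulled down with pan-class I antibody, peptides quantified by DIA-MS versus 37 °C, Tm where half the complex is lost.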

| Sequence | thermal melting temperature |
| --- | --- |
| B1 | 54 °C |
| B2 | 66.6 °C |
| B3 | 60.2 °C |
| B4 | 60.8 °C |
| B5 | 61.4 °C |
| B6 | 60.5 °C |
| B7 | 55.1 °C |
| B8 | 54.3 °C |
| B9 | 56.6 °C |
| B10 | 54.3 °C |
| B11 | 60.1 °C |
| B12 | 64.4 °C |
| B13 | 62.7 °C |
| B14 | 63 °C |
| B15 | 57.8 °C |
| B16 | 58 °C |

Source: the supplement of paper PMC7726561
